Data on 40 molecules can be found in the supplement of paper PMC9174493.

Some of the results follow. Single values of this set are uncertain. Values with irradiation are relative to irradiated vehicle.
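Note: viability correction based on the alamar blue assay, with concentrations leaving 10% survival or less dropped.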

This assay relates to A549-Dual. In words: NF-kB reporter (SEAP) activity, viability-corrected, relative to vehicle (fold change vs vehicle); higher = more activation of STING-IRF / NF-kB immune response reporter. The settings on record: 10 µM; irradiation: none.
Molecule `CC(NC(=NC#N)Nc1ccncc1)C(C)(C)C.O` (stereo not given) [Pinacidil] gave an NF-kB reporter of 0.835. With `CN(C)N(C)C(=O)C1(Cc2ccccc2)CCCN(C(=O)C(Cc2c[nH]c3ccccc23)NC(=O)C(C)(C)N)C1` (stereo not given) [Anamorelin], the NF-kB reporter worked out at 0.772. In the case of `NNC(=O)c1ccncc1.Nc1ccc(C(=O)O)c(O)c1` [Pasiniazid] it was 4.4; in that of `Cc1nc(C(=O)NCC(=O)O)c(O)c2ccc(Oc3ccccc3)cc12` [Roxadustat (FG-4592)], 0.764. In the case of `COc1ccccc1O` [Guaiacol] it was 1.01; in that of `O=C([O-])CCC(=O)OCC(NC(=O)C(Cl)Cl)C(O)c1ccc([N+](=O)[O-])cc1.[Na+]` (stereo not given) [Chloramphenicol sodium succinate], 0.913; in that of `CCCCC(CC)CN1CN(CC(CC)CCCC)CC(C)(N)C1` (stereo not given) [Hexetidine], 1.08. Next, `CC(C)=CCC/C(C)=C/CC/C(C)=C/CC/C=C(\C)CC/C=C(\C)CCC=C(C)C` [Squalene]: 0.901.

Consider `Cl.NCCC[C@H](N)C(=O)O` [L-Ornithine], for which the NF-kB reporter is 0.876. As to `CNCc1cc(-c2ccccc2F)n(S(=O)(=O)c2cccnc2)c1.O=C(O)/C=C/C(=O)O` [Vonoprazan Fumarate (TAK-438)], the NF-kB reporter turned out to be 1.25. In the case of `Cc1cccc(C)c1OCC(=O)NC(Cc1ccccc1)C(O)CC(Cc1ccccc1)NC(=O)C(C(C)C)N1CCCNC1=O` (stereo not given) [Lopinavir] it was 0.68; in that of `C=CC1C(OC2OC(CO)C(O)C(O)C2O)OC=C2C(=O)OCCC21O` (stereo not given) [Swertiamarin], 0.771; in that of `CC(C)=CCCC(C)CC=O` (stereo not given) [Citronellal], 0.735. In the case of `COc1ccccc1Oc1c(NS(=O)(=O)c2ccc(C(C)(C)C)cc2)nc(-c2ncccn2)nc1OCCO.O` [Bosentan Hydrate] it was 1.45.

For `O=C(O)c1ccc(C(=O)O)cc1` [Terephthalic acid], the NF-kB reporter was determined as 0.772. Next, `Cc1ccc(S(=O)(=O)NC(=O)NN2CC3CCCC3C2)cc1` (stereo not given) [Gliclazide]: 0.841; `OCc1cc(C(O)CNCCCCCCOCCCCc2ccccc2)ccc1O` (stereo not given) [Salmeterol]: 0.789. In the case of `Cc1cc(O)c2c(c1)C(=O)c1cc(O)cc(O)c1C2=O` [Emodin], the NF-kB reporter stood at 0.493.

In turn, `CN(C)c1cc(NC(=O)CNC(C)(C)C)c(O)c2c1CC1CC3C(N(C)C)C(O)=C(C(N)=O)C(=O)C3(O)C(O)=C1C2=O` (stereo not given) [Tigecycline] yielded an NF-kB reporter of 0.962. `O=C(Nc1ccc(Cl)cc1)Nc1ccc(Cl)c(Cl)c1` [Triclocarban] came in with an NF-kB reporter of 0.825.

Molecule `CC1=NN(c2ccc(C)c(C)c2)C(=O)/C1=N\Nc1cccc(-c2cccc(C(=O)O)c2)c1O` [Eltrombopag] had an NF-kB reporter of 1.53.

For the molecule `Cc1cc(C2CCCCC2)n(O)c(=O)c1` [Ciclopirox], the NF-kB reporter turned out to be 1.24. Next, `CN(C)CCCN1c2ccccc2Sc2ccc(Cl)cc21.Cl` [Chlorpromazine HCl]: 1.25. For the molecule `CCc1cc2c(cc1CC)CC(NCC(O)c1ccc(O)c3[nH]c(=O)ccc13)C2.O=C(O)/C=C\C(=O)O` (stereo not given) [Indacaterol Maleate], the NF-kB reporter was 1.1.

As for `CCCOC(=O)c1ccc(O)cc1` [Propylparaben], the NF-kB reporter was 0.555. In the case of `CC(C)(Oc1ccc(C(=O)c2ccc(Cl)cc2)cc1)C(=O)[O-].C[N+](C)(C)CCO` [Choline Fenofibrate] it was 0.652; in that of `NS(=O)(=O)c1cc(C(=O)O)c(NCc2ccco2)cc1Cl` [Furosemide], 1.07; in that of `CC(C)(C)C1NC(=O)OC2CCCC2OC/C=C/C(F)(F)c2nc3ccccc3nc2OC2CC(C(=O)NC3(C(=O)NS(=O)(=O)C4(C)CC4)CC3C(F)F)N(C2)C1=O` (stereo not given) [Glecaprevir], 0.944.

Consider `CC(=O)O.NCc1ccc(S(N)(=O)=O)cc1` [Mafenide Acetate], for which the NF-kB reporter came to 1.07. In the case of `CC(C)NCC(O)COc1ccc(CCOCC2CC2)cc1.Cl` (stereo not given) [Levobetaxolol HCl] it was 0.967. In the case of `CC(=O)O.N=C(N)NCCCC(NC(=O)C1CCCN1C(=O)C1CSSCCC(=O)NC(Cc2ccc(O)cc2)C(=O)NC(Cc2ccccc2)C(=O)NC(CCC(N)=O)C(=O)NC(CC(N)=O)C(=O)N1)C(=O)NCC(N)=O` (stereo not given) [Desmopressin Acetate] it was 0.693; in that of `CCn1cc(C(=O)O)c(=O)c2cnc(N3CCCC3)nc21` [Piromidic Acid], 0.966.

Consider `CC(C)(C)NCC(O)COc1nsnc1N1CCOCC1.O=C(O)/C=C\C(=O)O` (stereo not given) [Timolol Maleate], for which the NF-kB reporter is 1.13. In turn, `C[N+](C)(C)CCO.Cn1c(=O)c2[n-]cnc2n(C)c1=O` [Oxtriphylline] gave an NF-kB reporter of 0.987. For the molecule `CCC1OC(=O)C(C)C(OC2CC(C)(OC)C(O)C(C)O2)C(C)C(OC2OC(C)CC(N(C)C)C2O)C(C)(O)CC(C)CN(C)C(C)C(O)C1(C)O` (stereo not given) [Azithromycin], the NF-kB reporter turned out to be 1.24. Next, `O=Cc1ccc(CO)o1` [5-Hydroxymethylfurfural]: 0.824; `CC(C)C(NC(=O)C(CC(=O)O)NC(=O)C(CCCCN)NC(=O)C(N)CCCNC(=N)N)C(=O)NC(Cc1ccc(O)cc1)C(=O)O` (stereo not given) [Thymopentin]: 0.789; `CC=Cc1ccc(OC)cc1` (stereo in doubt) [cis-Anethole]: 0.773. In the case of `CCN1CC(CCN2CCOCC2)C(c2ccccc2)(c2ccccc2)C1=O.Cl.O` (stereo not given) [Doxapram HCl] it was 0.698. Regarding `NC(=O)c1cn(Cc2c(F)cccc2F)nn1` [Rufinamide], the NF-kB reporter was 0.969.
